From the supplement of paper PMC10126150
Values marked as one replicate rest on one cluster of the flow cell; about a third of the high ones do not repeat.

Each sequence was assayed on ATP (assay: switch fluorescence ratio, 500 uM ATP over buffer (Cy3 cluster intensity, sum of 5 cycles each) (fold (ratio)); higher = stronger signal-on switching upon ATP binding; sequences stand for … in TCGTCGGCAGCGTCAGATGTGTATAAGAGACAGTTTTTTTTTTTTTTTTTTTTTTTTT…TC). Conditions: aptamer strand: ATP DNA aptamer (quencher-CACCTGGGGGAGTATTGCGGAGGAAGG + anchor), 100 nM annealed; ATP concentration: 500 uM; one replicate.
In short: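 For every switch-domain sequence, the fluorescence ratio is the mean of per-cluster values, each being summed target-cycle Cy3 intensity over summed buffer-cycle Cy3 intensity. Clusters outside 100-1000 RFU were excluded. On a modified Illumina MiSeq flow-cell, the Cy3-labelled switching-strand clusters were annealed to 100 nM quencher-labelled ATP aptamer, imaged in selection buffer and then after 15 min with 500 uM ATP at 22 °C. Five such cycles were run, with NaOH stripping and re-annealing between them.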
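Further: ATP exposure 15 min at 22 °C before imaging.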

Row | Sequence | switch fluorescence ratio
1 | TGACTGCAGA | 1.04
2 | AAAACCGCCG | 1.07
3 | GGAAAGCTAT | 0.975
4 | AGTTTATAAG | 0.991
5 | AACGTGCTTG | 1.08
6 | GTGTACGTAT | 1.03
7 | CGTGAGATAC | 1.46
8 | GAGCCATATC | 1.04
9 | GCCATGTACG | 1.04
10 | CCGTGGCGCG | 1.01
11 | AGGAACTT | 0.982
12 | CAGCTGAAAC | 1.01
13 | CCTCGTGGCA | 1.66
14 | TGTTTGGTCG | 0.944
15 | AGGCACTGTA | 1.07
16 | TTGTTGTACG | 1.06
17 | CCTCTGAGCT | 1.8
18 | TATTAGAGTC | 0.975
19 | CATGTAGAGT | 1.05
20 | TTGTCAATGA | 1.02
21 | AATTGGTTAC | 1.06
22 | GGGAAACGCT | 1.02
23 | GAGTGCGT | 1
24 | TGTAATGCTT | 1.01
25 | TTACGAAGTA | 1.05
26 | TTTCTGCAGA | 1.01

Row | Sequence | switch fluorescence ratio
27 | GATAAAAAA | 1.03
28 | CTGGTTAAAG | 1.01
29 | GATACAGTCG | 0.992
30 | TGATATCAC | 0.998
31 | ATTAAAAGCG | 1.01
32 | GCAGTGACTA | 1.05
33 | TGAGACAGGG | 0.976
34 | GATGATAAGA | 1.04
35 | TAGAACACTA | 1.02
36 | GCAACGGGTA | 1
37 | ATAGTAAAGA | 1.01
38 | CCAGTGGATT | 1.02
39 | AGCAGTTATT | 0.954
40 | CATGAAACTG | 0.932
41 | TACCTTATTA | 1.07
42 | ACGGA | 1.03
43 | GCTACAACAG | 1.04
44 | GACTCAAAAT | 1.08
45 | TGGATCGTAA | 1.03
46 | TTTGCAGGAG | 1.2
47 | ATGTCCTTTT | 0.994
48 | AGTCCATTGT | 0.983
49 | ATGAAAGCAA | 1.84
50 | CGAAATCTAC | 1.21
51 | CAGTCGTAC | 1.09
52 | GGGACCTGAG | 1.04

Row | Sequence | switch fluorescence ratio
53 | TCTAAACCGA | 1.19
54 | GTGTAGTGGG | 0.984
55 | GGAATTGTGC | 0.985
56 | GTCGAGACGC | 1.02
57 | CAATGAAGTA | 0.966
58 | CCACGGGTA | 1.03
59 | ATCCAAGCT | 1.05
60 | ATTACCCGGG | 1.05
61 | ATTTGAAAGG | 0.983
62 | GGGCGCCAAG | 0.977
63 | ACGGACAGGC | 1.35
64 | AGGAGCCAGC | 0.991
65 | AGTCAGCCAA | 1.02
66 | AGCCTTGCAA | 1.65
67 | CCAGCGCTCG | 1.07
68 | CAGCATTGC | 1.49
69 | TATGTTGCAG | 0.98
70 | GTAGAAGCCA | 0.97
71 | AACCATTGG | 1.03
72 | CAACCGAATT | 1.72
73 | TACATGCTT | 1.07
74 | CAGTTCTAGC | 0.968
75 | AAGGTTATTT | 1.02
76 | TAAAGACCAG | 1.04
77 | GCTGCATA | 1.71
78 | GCTCAGGGCC | 1.01

Row | Sequence | switch fluorescence ratio
79 | GTTGTATGGT | 1
80 | GGGGAGTCCG | 0.927
81 | ACCTGAAAAG | 0.986
82 | TTGGATAAAA | 1.01
83 | TCGATTGAGC | 0.99
84 | GCCGTGGGAA | 1
85 | GGCTATGCG | 1
86 | AGTGGGTGAG | 0.971
87 | ACACCAGGAA | 0.987
88 | CTCTACATTG | 1.01
89 | TTGATGCTAA | 1.09
90 | GGACTCAGAT | 0.998
91 | TAGTGTTCCG | 0.91
92 | CCGCGCGCGC | 1.03
93 | TCCTGGTTTG | 0.994
94 | ACTCGAGCAT | 1.41
95 | ACGACTATCT | 1.1
96 | GTGCGCGAA | 1.02
97 | GGCGAAGGA | 0.943
98 | AGAAGAGAAG | 1.14
99 | GGGTTACAGA | 1.03
100 | GCCTCAGTAG | 1.08
101 | AATGTGCTAC | 1.11
